Screen size: about 150,000 compounds; about 540 (0.36%) showed an effect of 50% or more. Some of the results follow.

In this assay the test system is Plasmodium falciparum. The assay is described as follows: Primary screen in NF54 nanoGlo assay, in single point, at 2uM, 72h; a lower Z score goes with more inhibition. The following applies: timepoint 72 hour. The assay is classed as functional, Erythrocyte.
In general, % Inhibition refers to the change of the read-out against control, counted positive when it falls. Turning to `Cc1cccc2c1nc1n2[C@@H](CNC(=O)c2ccc3c(c2)OCO3)COC1`, the “% Inhibition” value is recorded as 27% and the Z score was -3.1.

In the case of `COc1ccc(-c2nc3ccc(Cc4ccc5nc(-c6ccc(OC)cc6)c(-c6ccc(OC)cc6)nc5c4)cc3nc2-c2ccc(OC)cc2)cc1`, the “% Inhibition” value is on record as 11% and the Z score is on record as -2.21.

For `CC(C)(C)CC(=O)N1CC(N2C(=O)COC2=O)C1`, the “% Inhibition” value is -2% and the Z score worked out at 0.19.

For the compound `CCc1cc(CN2CCC3(CC2)Cc2cccc(c2)Oc2ccc(cc2)C[C@@H](C(=O)O)NC(=O)CCNC3=O)on1`, the “% Inhibition” value is given as -2% and the Z score is listed as 0.34.

As for `CCOC(=O)CN(C(=O)COc1cccc(C)c1)c1ccc(F)cn1`, the “% Inhibition” value was -19% and the Z score was found to be 2.91.

With `O=C([C@H]1CCOC1)N1CCCn2nc(-c3ccc(Cl)cc3)cc2C1`, the “% Inhibition” value is reported as -8% and the Z score was 1.3.

With `CCC1(CO)CCCN(C(C)C(N)=O)C1` (configuration not stated), the “% Inhibition” value was 9% and the Z score was -1.79.

Regarding `NC(=O)N1CCCC1CC1CCCc2ccccc21` (configuration not stated), the “% Inhibition” value is -5% and the Z score came to 0.63.

As for `C[C@H]1CCCN(C(=O)CN(C)C2CCN(Cc3ccccc3)CC2)C1`, the “% Inhibition” value is recorded as 13% and the Z score is -1.74.

As for `Nc1ccc(-c2nc(-c3ccccc3)c3cc(-c4c5ccccc5c(-c5ccc6nc(-c7ccc(N)cc7)nc(-c7ccccc7)c6c5)c5ccccc45)ccc3n2)cc1`, the “% Inhibition” value is -4% and the Z score stood at 0.77.

For `COc1cc(C)n(CCNC(=O)CCc2ccc(Cl)c(C(F)(F)F)c2)c(=O)c1`, the “% Inhibition” value was -12% and the Z score is on record as 2.21.

Regarding `Cc1cc2c(c(-c3ccc(-c4csc(N)n4)cc3)c1)O[C@@H](CN)C2`, the “% Inhibition” value is listed as -6% and the Z score is 0.98.

For the compound `Cc1cc(C)c(CN2CCS(=O)(=O)CC2)cc1CN1CCC(C)CC1`, the “% Inhibition” value amounted to 5% and the Z score was -0.64.

Consider `O=C(COc1ccccc1F)NC1CCN(c2cnsn2)CC1`, for which the “% Inhibition” value is -21% and the Z score was found to be 2.67.

As for `CC(C)N(C)c1ccccc1CNC(=O)Cc1cscn1`, the “% Inhibition” value is reported as -9% and the Z score amounted to 1.38.

`C[C@@H]1CN(C(=O)c2nc3ccc(Cl)cn3c2CNCCc2cn[nH]c2)C[C@H](C)O1`: the “% Inhibition” value was -11% and the Z score is on record as 1.95.

As to `CC(NC(=O)c1ccnn1C)C1CCCO1` (configuration not stated), the “% Inhibition” value was -5% and the Z score stood at 0.73.

With `NC(=O)C1(NCc2ccon2)CCCCC1`, the “% Inhibition” value was -7% and the Z score came to 1.29.

`CCc1cc2c(N3CC[S+]([O-])CCC3C)ncnc2s1` (configuration not stated): the “% Inhibition” value is 0% and the Z score came to 0.

In the case of `Cc1ccc(OCC(=O)N2CCC(C)(c3nc(C)no3)CC2)cc1`, the “% Inhibition” value is -1% and the Z score was 0.19.

For `CCn1ncnc1CN1CCN(c2cccc(OC)c2)C(C)(C)C1`, the “% Inhibition” value is listed as 3% and the Z score is given as -0.54.

For `CCn1ccc(CN2CCC(CNC(=O)[C@@H]3CCCCN3C(=O)OC)CC2)n1`, the “% Inhibition” value is -3% and the Z score stood at 0.49.

On to `CCS(=O)(=O)N(CCc1cccs1)Cc1cc(C)on1`, for which the “% Inhibition” value is on record as -7% and the Z score was found to be 0.91.

On to `Cc1ccc(C(=O)Nc2ncnc3c2c(-c2ccc(C)cc2)nn3C(C)(C)C)cc1`, for which the “% Inhibition” value is given as -6% and the Z score came out at 0.78.

With `Cc1c(C(=O)N[C@@H](C)COCC(C)C)nnn1-c1cccc2ncccc12`, the “% Inhibition” value came out at 11% and the Z score is given as -1.13.

As for `CC(=O)N1CCN(C(=O)CC[C@@H](C)[C@H]2CC[C@H]3[C@@H]4[C@@H](O)C[C@@H]5C[C@H](O)CC[C@]5(C)[C@H]4CC[C@]23C)CC1`, the “% Inhibition” value is -5% and the Z score was 0.78.

As for `Cc1cc2nc(C)c(=O)n(CC(=O)NCCCN(C)Cc3ccccc3)c2cc1C`, the “% Inhibition” value is given as -15% and the Z score is given as 1.92.

With `CC1(C)CCN(C(=O)c2ccoc2C2CC2)CCS1(=O)=O`, the “% Inhibition” value is -5% and the Z score is given as 0.74.

`O=C(Cn1nnc2ccccc21)N1CC[C@H](Oc2cccc3cccnc23)C1`: the “% Inhibition” value was -9% and the Z score came out at 1.81.

As to `COc1ccc([C@@H](C)NC(=O)N2CCC3(C2)CC3(F)F)c(OC)c1` (some centres not stated), the “% Inhibition” value is -19% and the Z score amounted to 2.46.

Take `CC(C)c1nccn1CC(=O)N1CCC[C@H]1c1cccs1`: the “% Inhibition” value is -5% and the Z score is on record as 0.62.

With `CN(CC1CCCCC1)C(=O)c1cc2ccccc2[nH]1`, the “% Inhibition” value was -7% and the Z score is reported as 0.95.

For the compound `CCCc1nc(C(=O)N2CCc3cc(OC)c(OC)cc3C2)cs1`, the “% Inhibition” value is on record as -18% and the Z score is 1.68.

`Cc1c(C(c2ccc(-c3cccc(C(F)(F)F)c3)o2)c2c(C)n(C)n(-c3ccccc3)c2=O)c(=O)n(-c2ccccc2)n1C`: the “% Inhibition” value is listed as -2% and the Z score was 0.33.

For the compound `CCOCc1ccccc1CNC(=O)N1CCCCCNC(=O)CC1`, the “% Inhibition” value is -20% and the Z score stood at 2.1.

As for `CO[C@H]1C[C@@H](O)C12CCN(C(=O)c1c(C)noc1C)CC2`, the “% Inhibition” value is recorded as -13% and the Z score amounted to 1.17.

Regarding `O=C(NCCc1ccccn1)N1CCn2cncc2C1`, the “% Inhibition” value is 6% and the Z score was -0.8.

Take `CN(C)C(=O)c1cccc(/C=C/C2CCCCC2)c1`: the “% Inhibition” value was -7% and the Z score worked out at 0.9.

For `COc1ccc(OC)c(-c2ccnc3nncn23)c1`, the “% Inhibition” value is 25% and the Z score was -2.82.

Take `CC(C)(C)c1cnc(C=Cc2ncc(C(=O)O)s2)s1`: the “% Inhibition” value stood at 9% and the Z score is reported as -0.88.

As for `NCC(=O)N1CC[C@H](Oc2ccc(Cl)c(Cl)c2)C1`, the “% Inhibition” value is given as -4% and the Z score turned out to be 0.51.

The values above are taken from ChEMBL document CHEMBL4888484, “Replenishing the malaria drug discovery pipeline: Screening and hit evaluation of the MMV Hit Generation Library 1 (HGL1) against asexual blood stage Plasmodium falciparum ,using a nano luciferase reporter read-out” (2022).
